Measurements from the BET-seq Pho4 binding data (Le et al. 2018).
This is one part of the list. These are noisy estimates, calculated here from bound and input reads.

The sequences below were run against T1, Pho4 (S. cerevisiae) (UniProt P07270) (assay: relative binding free energy (BET-seq); higher = weaker binding). Details: reference: library average.
T1 sequence: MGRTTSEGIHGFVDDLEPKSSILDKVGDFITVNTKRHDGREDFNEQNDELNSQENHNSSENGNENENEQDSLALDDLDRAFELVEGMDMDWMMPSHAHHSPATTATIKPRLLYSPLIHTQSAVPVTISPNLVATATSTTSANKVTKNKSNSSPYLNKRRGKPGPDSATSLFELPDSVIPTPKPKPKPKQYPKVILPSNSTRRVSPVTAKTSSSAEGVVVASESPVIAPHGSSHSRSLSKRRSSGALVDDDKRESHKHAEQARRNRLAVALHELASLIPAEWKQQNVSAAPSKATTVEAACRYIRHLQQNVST

Sequence | relative binding free energy [kcal/mol]
TAGGTCACGTGACGGT | 0.08
CTGTACACGTGAGAGT | 0.22
TATTTCACGTGTCGGT | 0.33
GGGCTCACGTGGCGTA | 0.19
GCGTGCACGTGGTGGC | -0.05
ATTGTCACGTGTTGCG | 0.06
CTGGTCACGTGTATTG | 0.06
ATTTTCACGTGCTGTT | 0.3
GGATGCACGTGAGGTA | 0.22
TAAGACACGTGGCGTT | -0.12
CTAGGCACGTGTAGTG | 0.07
GGATACACGTGTTTAG | 0.23
TTGTACACGTGTAAAG | 0.07
ATAGTCACGTGGGGCA | -0.05
TGCAGCACGTGTGGAT | 0.08
ATTAGCACGTGATTTA | -0.16
TATGGCACGTGTGGAT | 0.02
GGGGACACGTGGTTCT | 0.04
AGGCACACGTGGAAGG | 0.03
TGCGGCACGTGTTAGG | -0.12
AGAGGCACGTGCGAGG | -0.11
GGCGGCACGTGTCGGC | -0.01
GTGGGCACGTGGAGTG | -0.05
GATGGCACGTGGGCGG | -0.2
TTATTCACGTGGCTGA | 0.2

Sequence | relative binding free energy [kcal/mol]
GAAGTCACGTGGGGTA | -0.04
TTATTCACGTGCGTGT | 0.16
AATAGCACGTGTGAGA | 0.03
GGTATCACGTGAGAGG | 0.24
GAGGGCACGTGGGGTG | -0.18
TGATTCACGTGGCGAG | 0.4
TTGGCCACGTGGATGT | -0.08
TAAGGCACGTGGGGCT | -0.29
TTACGCACGTGATTGG | -0.04
GGAAACACGTGTTGGA | 0.05
GTTATCACGTGGTACG | 0.04
AAGGTCACGTGTCGCG | 0.2
TGTATCACGTGGTGAC | 0.05
GTGGACACGTGCTGTT | 0.04
AATGTCACGTGTGCAG | 0.03
AGTATCACGTGGCTGT | 0.07
CTGTTCACGTGGTAGA | 0.28
CGGTGCACGTGAGTAT | 0.13
GGGCACACGTGAGTGT | 0.1
TGTTTCACGTGGTAAC | 0.29
TCTGTCACGTGTTGTA | 0
ATTCTCACGTGAGGAT | 0.33
TGTTGCACGTGAGCGT | 0.05
TTATACACGTGAAGAG | 0.46
GGTACCACGTGTTGGG | -0.21

Sequence | relative binding free energy [kcal/mol]
ATAATCACGTGTATTG | 0.2
ATAGTCACGTGAGTTA | 0.34
TGGTGCACGTGCTTGG | -0.01
GGCTTCACGTGGGTTA | 0.13
GGGCGCACGTGTTGTG | -0.09
TAGCGCACGTGGTTTG | -0.21
GCGGGCACGTGAAGGG | 0.11
GTGTACACGTGTGGGA | 0.15
TTAGGCACGTGAGTAG | 0.05
AGTAACACGTGCAGGT | 0.12
ACCGTCACGTGGTTGG | 0.07
CATTGCACGTGTGGTT | 0.15
ATACTCACGTGTGGGT | -0.07
ACTGTCACGTGTTGAT | 0.17
ATGACCACGTGGAGGT | -0.06
ACGGTCACGTGATGGT | 0.27
TATTTCACGTGTCTTG | 0.19
TTCATCACGTGTCGGG | 0.23
TTAATCACGTGTCTGG | 0.05
GTAGGCACGTGCGAGA | -0.07
AGGTACACGTGCTAGT | -0.03
AGGGTCACGTGAGTAG | 0.27
TTCGGCACGTGCTTGT | -0.22
CGTTGCACGTGAGAAG | 0.24
GTCAACACGTGGGGAT | 0.08

Sequence | relative binding free energy [kcal/mol]
TCATGCACGTGAGAGG | 0.18
GTGTGCACGTGGGTGG | -0.09
GATGCCACGTGTTTTG | -0.08
AATCACACGTGGGGGT | -0.01
GCTTGCACGTGGGGGA | -0.07
GGTATCACGTGTCATG | 0.08
CTTGACACGTGAGTTG | 0.17
AGTGACACGTGTGTTT | -0.05
CTGGGCACGTGTTCGA | 0
AATCGCACGTGGGCGG | -0.14
GTTGCCACGTGGGGTT | -0.19
GTTCTCACGTGGTTGT | 0.17
CTGTTCACGTGTGTAA | 0.36
TGATTCACGTGTTATC | 0.34
GGTTACACGTGGTCGT | -0.01
TGTACCACGTGTGGTT | -0.1
TATGGCACGTGATGTC | -0.1
AGGTTCACGTGGCCGT | 0.23
TGTTTCACGTGGTGTC | 0.14
GGTAGCACGTGGTTGT | -0.13
TAGGGCACGTGAAGCT | 0.14
CGTGTCACGTGCATGT | -0.05
GGGATCACGTGCGGAT | 0.07
AGTGTCACGTGGTTCA | -0.08
GACGGCACGTGACGGT | 0.17

Sequence | relative binding free energy [kcal/mol]
TAATTCACGTGTTTTC | 0.26
TTTGCCACGTGTTTCA | -0.02
GAGATCACGTGTGCGT | 0.17
AAATTCACGTGTTGTT | 0.21
TTTGGCACGTGGCCTT | -0.23
ATGATCACGTGTATAT | 0.22
ATAGGCACGTGGGTTG | -0.17
GGTAGCACGTGTGGAA | 0.17
TATAACACGTGGCGTT | -0.08
AGGCGCACGTGTCGTG | -0.17
ATTTCCACGTGTTGGC | 0.17
TGGCGCACGTGTTGAT | -0.08
TTAACCACGTGGGGTA | -0.24
GTTCGCACGTGGGTAT | 0.03
TTGGTCACGTGAAGCT | 0.44
GGTATCACGTGCTATG | 0.08
AGCTGCACGTGGAGGG | -0.16
GTTGCCACGTGATTTG | 0
AGGCGCACGTGGTTGG | -0.04
CTTTGCACGTGGAGCG | 0.13
TTTGGCACGTGTGCGG | -0.03
TGAGGCACGTGATATA | -0.04
GTAAACACGTGATTGG | 0.11
GGATTCACGTGGATAT | 0.33
GGGTGCACGTGTATTA | 0.1

Sequence | relative binding free energy [kcal/mol]
TAAATCACGTGGCTGG | 0.04
GTGCGCACGTGAGGGC | 0.13
TACTTCACGTGTTAAG | 0.24
GATTTCACGTGCGGGA | 0.38
GATGACACGTGGGGTG | -0.13
CGGTACACGTGAGTTG | 0.29
CTGATCACGTGTGGGG | 0.24
GAGTTCACGTGAGGAG | 0.48
TTTAGCACGTGAGGTG | 0.1
ATAGGCACGTGTTTGG | -0.21
GATATCACGTGGGCGG | 0.08
GGATGCACGTGGATGA | -0.08
CAGGTCACGTGTTGGC | 0.06
AACTGCACGTGGGTAG | -0.18
TTTCTCACGTGTTGAG | 0.3
GTCTACACGTGATTGT | 0.17
TATGGCACGTGAGGAG | 0.14
GGCTTCACGTGGCGGA | 0.18
TTGGGCACGTGTGATG | 0
ATATTCACGTGGGGGC | 0.22
ATGATCACGTGAGGTA | 0.31
